This note sets out measurements from ChEMBL document CHEMBL4888484, “Replenishing the malaria drug discovery pipeline: Screening and hit evaluation of the MMV Hit Generation Library 1 (HGL1) against asexual blood stage Plasmodium falciparum ,using a nano luciferase reporter read-out” (2022).

The campaign covered roughly 150,000 compounds. About 540 (0.36%) showed an effect of 50% or more. The list shows a part of the results.

This test has as its system Plasmodium falciparum. Description: Primary screen in NF54 nanoGlo assay, in single point, at 2uM, 72h; a lower Z score goes with more inhibition. Type of test: functional, Erythrocyte. As to conditions: timepoint 72 hour.
With `CCC[C@@H](CNc1ccc(C(C)C)nn1)N(C)C`, the “% Inhibition” value is listed as -9% and the Z score is 1.74.
Taken in the same sequence, the figures for `CCc1cn[nH]c1[C@H]1CCCN(c2nc3c(C)cccc3cc2CO)C1` were 0% and 0.06.
Taken in the same sequence, the figures for `CC(=O)N[C@H]1CCN(C(=O)Nc2c(-c3ccccc3)cnn2C(C)(C)C)C1` were -15% and 1.36.
Taken in the same sequence, the figures for `O=C(N[C@@H]1CCC[C@@H]1C(=O)NCCCc1ccccc1)c1ccncc1` were -16% and 2.15.
On to `Cc1cc(Nc2cnn(C)c2)n2nc(C)cc2n1`, for which the “% Inhibition” value is -9% and the Z score is 1.61.
Taken in the same sequence, the figures for `CCOc1cccnc1C(=O)N1CCC2(CC1)CN(C(C)=O)[C@@H]1COC[C@@H]12` were -12% and 1.88.
For the molecule `Cn1nccc1CNCCNc1cccc(Br)c1`, the “% Inhibition” value is reported as -5% and the Z score worked out at 0.75.
Taken in the same sequence, the figures for `Cc1c(-c2noc(C(=O)NCCN3CCN(c4ccccc4F)CC3)n2)oc2c(C)cccc12` were -8% and 1.03.
Taken in the same sequence, the figures for `CCc1ccc(CN(C)CC2(C)COC2)s1` were -12% and 1.52.
Taken in the same sequence, the figures for `O=C1c2ccccc2O[C@@]2(C=Cc3ccccc3O2)N1Cc1ccccc1` were -11% and 1.45.
Regarding `CCN(CC(=O)Nc1ccccc1OC)C(=O)c1ccc(S(=O)(=O)N2CCOCC2)cc1`, the “% Inhibition” value came to 34% and the Z score is on record as -0.62.
On to `OC1CCN(Cc2ccc(CNCc3cc(F)ccc3F)cc2)CC1`, for which the “% Inhibition” value is listed as -3% and the Z score is 0.42.
Taken in the same sequence, the figures for `Cc1ccc(C[C@H](NC(=O)c2ccncc2)c2ccccn2)cc1` were 1% and -0.15.
On to `Cc1nn(CC(=O)N2C3CCC2CC(O)C3)c(C)c1Cl` (configuration not stated), for which the “% Inhibition” value is on record as 30% and the Z score is -3.43.
Regarding `CN(CCCc1ccco1)[C@H]1CS(=O)(=O)C[C@@H]1O`, the “% Inhibition” value worked out at 1% and the Z score is given as -0.14.
In the case of `O=C(O)c1cn(-c2nc(-c3ccc(Br)cc3)cs2)c2c(F)c(F)c(F)cc2c1=O`, the “% Inhibition” value is on record as -1% and the Z score is reported as 0.18.
Taken in the same sequence, the figures for `O=C1CCCN1c1ccc(S(=O)(=O)Oc2ccccc2-c2ccccc2)cc1` were -3% and 0.34.
As to `COc1ccc(CN2CCCN(c3ccc(NC(=O)COc4ccccc4)cn3)CC2)c(OC)c1OC`, the “% Inhibition” value is recorded as -5% and the Z score came out at 0.52.
For the molecule `CCCNC(=O)[C@H](C)NC(=O)C1CCN(C(=O)[C@H](Cc2c[nH]c3ccccc23)NC(=O)OC(C)(C)C)CC1`, the “% Inhibition” value was -4% and the Z score was 0.5.
Consider `CC(C)CNC(=O)c1cc2n(n1)CCN(Cc1cccc(Cl)c1)C2=O`, for which the “% Inhibition” value is -6% and the Z score came to 0.68.
Taken in the same sequence, the figures for `Cc1ccc(N2CCN(CCCNC(=O)c3nc(-c4cncnc4)no3)CC2)cc1C` were -4% and 0.61.
Regarding `Cc1cc(F)cc(-n2cc(NC(=O)COC[C@H]3CCCO3)nn2)c1`, the “% Inhibition” value is -14% and the Z score is listed as 2.33.
As to `Cc1ccc(OC(=O)c2cccc(N3C(=O)C4CCC(c5ccccc5)CC4C3=O)c2)cc1C` (configuration not stated), the “% Inhibition” value is on record as -3% and the Z score came out at 0.42.
As to `O=C(O)[C@@H]1CCCN1Cc1ccn(-c2ccccc2)n1`, the “% Inhibition” value is on record as 4% and the Z score is reported as -0.6.
Taken in the same sequence, the figures for `CC(C)Cn1cc(NC(=O)C2(N)CCCC2)c(C(F)F)n1` were -15% and 2.97.
Turning to `Cc1ccc(C)c(NS(=O)(=O)c2c(C)[nH]c(-c3nnc(C4CCC4)o3)c2C)c1`, the “% Inhibition” value is given as -7% and the Z score is recorded as 0.93.
Taken in the same sequence, the figures for `COCCN1C[C@@H](C(=O)N2CCC3(CC2)Cc2cccc(c2)Oc2cccc(c2)CCNC3=O)CCC1=O` were -13% and 1.65.
Taken in the same sequence, the figures for `CN(C)C(=O)CNC(=O)Cc1cccs1` were -1% and 0.11.
Taken in the same sequence, the figures for `O=C(COc1ccc(Cl)cc1Cl)Nc1ccc2oc(-c3cccnc3)nc2c1` were -15% and 2.9.
`COc1cccc(C(=O)N2CCC3(CC2)OC[C@@H](C(=O)NC2CC2)N3C(=O)c2ccc(F)cc2)c1`: the “% Inhibition” value is recorded as -10% and the Z score was determined as 1.26.
Taken in the same sequence, the figures for `O=C(CN1CCOCC1)N1C2CCC1Cn1c(nn(Cc3ccccc3)c1=O)C2` (configuration not stated) were 7% and -1.21.
Taken in the same sequence, the figures for `CC(C)(C)[C@H]1CCc2oc3ccc(NS(=O)(=O)c4ccc5ccccc5c4)cc3c2C1` were -1% and 0.24.
Taken in the same sequence, the figures for `CCOCCN(C)C(=O)Nc1ccncc1F` were -5% and 0.6.
Take `CCOC(=O)Nc1nc(-c2ccccc2)c(C(=O)c2ccc(S(C)(=O)=O)cc2)s1`: the “% Inhibition” value came out at 33% and the Z score is reported as -1.07.
`Cc1oc(-c2ccc3ccccc3c2)nc1CN(C)[C@H]1CCOC1`: the “% Inhibition” value is recorded as -10% and the Z score was 1.53.
Taken in the same sequence, the figures for `CC(C)n1cc(C2=CCN(C(=O)Nc3ccc4c(c3)OCCO4)CC2)c2cccnc21` were 1% and -0.19.
Taken in the same sequence, the figures for `O=S(=O)(NCCc1nccs1)N1CCc2ccccc2C1` were -5% and 0.67.
For `NC(CCO)=NOCC(=O)Nc1cccc(C(F)(F)F)c1`, the “% Inhibition” value was -11% and the Z score stood at 0.98.
Taken in the same sequence, the figures for `N#C[C@@]1(c2ccccn2)CCCN(C(=O)c2ccc(Cl)cc2F)C1` were -9% and 0.91.
Taken in the same sequence, the figures for `CCOc1ccc(N2CCCCn3c2nc2c3c(=O)n(CCCc3ccccc3)c(=O)n2C)cc1` were -11% and 1.29.
As for `COc1cc(C(=O)NCc2cc(C(F)(F)F)ccc2N2CCN(C)CC2)on1`, the “% Inhibition” value is -9% and the Z score amounted to 1.78.
For `CC(C)C[C@@H](CNc1ncnc(N)c1Cl)N(C)C`, the “% Inhibition” value was -1% and the Z score came out at 0.1.
As for `CC(C)CNC(=O)[C@@]1(OCc2cccc(Cl)c2)CC(OCc2ccc(C(F)(F)F)cc2)[C@@H]2OC(C)(C)O[C@@H]2C1` (some centres not stated), the “% Inhibition” value was -15% and the Z score is recorded as 1.42.
Taken in the same sequence, the figures for `CCCNC(=O)CN[C@@H](C)c1cc(Br)ccc1F` were -4% and 0.47.
`C=CCN1CCN(C(=O)c2csc(-c3ccc(OCc4ccc(Cl)cc4)cc3Cl)n2)CC1`: the “% Inhibition” value was 8% and the Z score is on record as -1.14.
Taken in the same sequence, the figures for `Cc1cc(C(=O)C(=O)O)c(C)n1-c1ccc2snnc2c1` were -7% and 0.79.
Taken in the same sequence, the figures for `CN1CCC(NC(=O)C2(O)CCCC2)C1c1ccc(F)c(F)c1` (configuration not stated) were -3% and 0.46.
Taken in the same sequence, the figures for `CCc1nc(C[C@H]2CN(C(=O)CN3CC4(CCCC4)CC3=O)CCO2)no1` were -8% and 1.53.
`O=C1[C@@H](NS(=O)(=O)c2cccc(F)c2)CCN1c1ccccc1`: the “% Inhibition” value is listed as -4% and the Z score is recorded as 0.65.
Taken in the same sequence, the figures for `CC(C)(C)OC(=O)N1Cc2cc(O)ccc2C[C@H]1C(=O)NCC1CC1` were -13% and 2.51.
Turning to `Cc1ccc(NC(=O)N2CCc3c(c4ccccc4n3CC3CC3)C2)cc1`, the “% Inhibition” value is -6% and the Z score is recorded as 0.91.
